# Data reported in the supplement of paper PMC8728848.
# Some of the results follow.
# B1: MpL2 (Macrolepiota procera) (protein)
# chain: MSTQVSSGQTYKITNVKAGTVIRLSGEDNKSIIGYPYHSGKNQQWTFNWTGKAWTLRSASSGSYLGIEGTPADGTRLVAVNDPFEWHIWRDEANENAFRIFVPFTNYNLDLSGYGDTTPGTPVQLWWTWEGLHQTWTIDRP
# Tests used:
# Assay in all cases: glycan array binding signal (z-score within array); higher = stronger binding
# Conditions in all cases: glycan notation: IUPAC condensed, linker removed; mutation: D22R
# [1] = target: Gal(b1-4)GlcNAc(b1-3)Gal(b1-4)GlcNAc(b1-2)Man(a1-3)[Gal(b1-4)GlcNAc(b1-3)Gal(b1-4)GlcNAc(b1-2)Man(a1-6)]Man(b1-4)GlcNAc(b1-4)[Fuc(a1-6)]GlcNAc
# Procedure, shortened: (§1)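 Glycan array binding is given as a within-array Z-score, which can be read as non-binding when negative. The arrays, 3228 of them, came from the Consortium for Functional Glycomics database and were retained only where the protein sequence was available. Z-scores were averaged across arrays of the same protein sequence at different concentrations or buffers and across linkers.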
# [2] = target: Gal(b1-4)GlcNAc(b1-3)Gal(b1-4)GlcNAc(b1-2)[Gal(b1-4)GlcNAc(b1-3)Gal(b1-4)GlcNAc(b1-6)]Man(a1-6)[Gal(b1-4)GlcNAc(b1-3)Gal(b1-4)GlcNAc(b1-2)Man(a1-3)]Man(b1-4)GlcNAc(b1-4)GlcNAc
# Procedure, shortened: as §1
# [3] = target: Gal(b1-4)GlcNAc(b1-3)Gal(b1-4)GlcNAc(b1-2)[Gal(b1-4)GlcNAc(b1-3)Gal(b1-4)GlcNAc(b1-6)]Man(a1-6)[Gal(b1-4)GlcNAc(b1-3)Gal(b1-4)GlcNAc(b1-2)Man(a1-3)]Man(b1-4)GlcNAc(b1-4)[Fuc(a1-6)]GlcNAc
# Procedure, shortened: as §1
# [4] = target: Gal(b1-4)GlcNAc(b1-3)Gal(b1-4)GlcNAc(b1-3)Gal(b1-4)GlcNAc
# Procedure, shortened: as §1
# [5] = target: Gal(b1-4)GlcNAc(b1-3)Gal(b1-4)GlcNAc(b1-3)Gal(b1-4)GlcNAc(b1-2)Man(a1-3)[Gal(b1-4)GlcNAc(b1-3)Gal(b1-4)GlcNAc(b1-3)Gal(b1-4)GlcNAc(b1-2)Man(a1-6)]Man(b1-4)GlcNAc(b1-4)GlcNAc
# Procedure, shortened: as §1
# [6] = target: Gal(b1-4)GlcNAc(b1-3)Gal(b1-4)GlcNAc(b1-3)Gal(b1-4)GlcNAc(b1-2)Man(a1-3)[Gal(b1-4)GlcNAc(b1-3)Gal(b1-4)GlcNAc(b1-3)Gal(b1-4)GlcNAc(b1-2)Man(a1-6)]Man(b1-4)GlcNAc(b1-4)[Fuc(a1-6)]GlcNAc
# Procedure, shortened: as §1
# [7] = target: Gal(b1-4)GlcNAc(b1-3)Gal(b1-4)GlcNAc(b1-3)Gal(b1-4)GlcNAc(b1-2)[Gal(b1-4)GlcNAc(b1-3)Gal(b1-4)GlcNAc(b1-3)Gal(b1-4)GlcNAc(b1-6)]Man(a1-6)[Gal(b1-4)GlcNAc(b1-3)Gal(b1-4)GlcNAc(b1-3)Gal(b1-4)GlcNAc(b1-2)Man(a1-3)]Man(b1-4)GlcNAc(b1-4)[Fuc(a1-6)]GlcNAc
# Procedure, shortened: as §1
# [8] = target: Gal(b1-4)GlcNAc(b1-3)Gal(b1-4)GlcNAc(b1-3)Gal(b1-4)GlcNAc(b1-3)Gal(b1-4)GlcNAc(b1-2)Man(a1-3)[Gal(b1-4)GlcNAc(b1-3)Gal(b1-4)GlcNAc(b1-3)Gal(b1-4)GlcNAc(b1-3)Gal(b1-4)GlcNAc(b1-2)Man(a1-6)]Man(b1-4)GlcNAc(b1-4)GlcNAc
# Procedure, shortened: as §1
# [9] = target: Gal(b1-4)GlcNAc(b1-3)Gal(b1-4)GlcNAc(b1-3)Gal(b1-4)GlcNAc(b1-3)Gal(b1-4)GlcNAc(b1-2)Man(a1-3)[Gal(b1-4)GlcNAc(b1-3)Gal(b1-4)GlcNAc(b1-3)Gal(b1-4)GlcNAc(b1-3)Gal(b1-4)GlcNAc(b1-2)Man(a1-6)]Man(b1-4)GlcNAc(b1-4)[Fuc(a1-6)]GlcNAc
# Procedure, shortened: as §1
# [10] = target: Gal(b1-4)GlcNAc(b1-3)Gal(b1-4)GlcNAc(b1-3)Gal(b1-4)GlcNAc(b1-3)Gal(b1-4)GlcNAc(b1-2)[Gal(b1-4)GlcNAc(b1-3)Gal(b1-4)GlcNAc(b1-3)Gal(b1-4)GlcNAc(b1-3)Gal(b1-4)GlcNAc(b1-6)]Man(a1-6)[Gal(b1-4)GlcNAc(b1-3)Gal(b1-4)GlcNAc(b1-3)Gal(b1-4)GlcNAc(b1-3)Gal(b1-4)GlcNAc(b1-2)Man(a1-3)]Man(b1-4)GlcNAc(b1-4)[Fuc(a1-6)]GlcNAc
# Procedure, shortened: as §1
# [11] = target: Gal(b1-4)GlcNAc(b1-3)Gal(b1-4)GlcNAc(b1-3)Gal(b1-4)GlcNAc(b1-3)Gal(b1-4)GlcNAc(b1-3)Gal(b1-4)GlcNAc(b1-2)Man(a1-3)[Gal(b1-4)GlcNAc(b1-3)Gal(b1-4)GlcNAc(b1-3)Gal(b1-4)GlcNAc(b1-3)Gal(b1-4)GlcNAc(b1-3)Gal(b1-4)GlcNAc(b1-2)Man(a1-6)]Man(b1-4)GlcNAc(b1-4)GlcNAc
# Procedure, shortened: as §1
# [12] = target: Gal(b1-4)GlcNAc(b1-3)Gal(b1-4)GlcNAc(b1-3)Gal(b1-4)GlcNAc(b1-3)Gal(b1-4)GlcNAc(b1-3)Gal(b1-4)GlcNAc(b1-2)Man(a1-3)[Gal(b1-4)GlcNAc(b1-3)Gal(b1-4)GlcNAc(b1-3)Gal(b1-4)GlcNAc(b1-3)Gal(b1-4)GlcNAc(b1-3)Gal(b1-4)GlcNAc(b1-2)Man(a1-6)]Man(b1-4)GlcNAc(b1-4)[Fuc(a1-6)]GlcNAc
# Procedure, shortened: as §1
# [13] = target: Gal(b1-4)GlcNAc(b1-3)Gal(b1-4)GlcNAc(b1-3)Gal(b1-4)GlcNAc(b1-3)Gal(b1-4)GlcNAc(b1-3)Gal(b1-4)GlcNAc(b1-2)[Gal(b1-4)GlcNAc(b1-3)Gal(b1-4)GlcNAc(b1-3)Gal(b1-4)GlcNAc(b1-3)Gal(b1-4)GlcNAc(b1-3)Gal(b1-4)GlcNAc(b1-6)]Man(a1-6)[Gal(b1-4)GlcNAc(b1-3)Gal(b1-4)GlcNAc(b1-3)Gal(b1-4)GlcNAc(b1-3)Gal(b1-4)GlcNAc(b1-3)Gal(b1-4)GlcNAc(b1-2)Man(a1-3)]Man(b1-4)GlcNAc(b1-4)[Fuc(a1-6)]GlcNAc
# Procedure, shortened: as §1
# [14] = target: Gal(b1-4)GlcNAc(b1-3)Gal(b1-4)GlcNAc(b1-3)Gal(b1-4)GlcNAc(b1-3)Gal(b1-4)GlcNAc(b1-3)Gal(b1-4)GlcNAc(b1-3)Gal(b1-4)GlcNAc(b1-2)Man(a1-3)[Gal(b1-4)GlcNAc(b1-3)Gal(b1-4)GlcNAc(b1-3)Gal(b1-4)GlcNAc(b1-3)Gal(b1-4)GlcNAc(b1-3)Gal(b1-4)GlcNAc(b1-3)Gal(b1-4)GlcNAc(b1-2)Man(a1-6)]Man(b1-4)GlcNAc(b1-4)GlcNAc
# Procedure, shortened: as §1
# [15] = target: Gal(b1-4)GlcNAc(b1-3)Gal(b1-4)GlcNAc(b1-3)GalNAc
# Procedure, shortened: as §1
# [16] = target: Gal(b1-4)GlcNAc(b1-3)Gal(b1-4)GlcNAc(b1-3)[Gal(b1-4)GlcNAc(b1-3)Gal(b1-4)GlcNAc(b1-6)]GalNAc
# Procedure, shortened: as §1
# [17] = target: Gal(b1-4)GlcNAc(b1-3)Gal(b1-4)GlcNAc(b1-6)[Gal(b1-3)]GalNAc
# Procedure, shortened: as §1
# [18] = target: Gal(b1-4)GlcNAc(b1-3)Gal(b1-4)[Fuc(a1-3)]GlcNAc(b1-3)Gal(b1-4)[Fuc(a1-3)]GlcNAc
# Procedure, shortened: as §1
# [19] = target: Gal(b1-4)GlcNAc(b1-3)GalNAc
# Procedure, shortened: as §1
# [20] = target: Gal(b1-4)GlcNAc(b1-3)[Fuc(a1-3)GlcNAc(b1-6)]Gal(b1-4)Glc
# Procedure, shortened: as §1
# [21] = target: Gal(b1-4)GlcNAc(b1-3)[Gal(b1-4)GlcNAc(b1-6)]Gal(b1-4)GlcNAc
# Procedure, shortened: as §1
# [22] = target: Gal(b1-4)GlcNAc(b1-3)[GlcNAc(b1-6)]Gal(b1-4)GlcNAc
# Procedure, shortened: as §1
binder,measurement,setting,value
B1,glycan array binding signal (z-score),[1],0.975
same,glycan array binding signal (z-score),[2],1.39
same,glycan array binding signal (z-score),[3],2.5
same,glycan array binding signal (z-score),[4],-0.248
same,glycan array binding signal (z-score),[5],2.57
same,glycan array binding signal (z-score),[6],1.14
same,glycan array binding signal (z-score),[7],2.85
same,glycan array binding signal (z-score),[8],0.327
same,glycan array binding signal (z-score),[9],1.18
same,glycan array binding signal (z-score),[10],1.89
same,glycan array binding signal (z-score),[11],-0.059
same,glycan array binding signal (z-score),[12],-0.032
same,glycan array binding signal (z-score),[13],0.704
same,glycan array binding signal (z-score),[14],0.99
same,glycan array binding signal (z-score),[15],2.32
same,glycan array binding signal (z-score),[16],2.76
same,glycan array binding signal (z-score),[17],1.3
same,glycan array binding signal (z-score),[18],-0.151
same,glycan array binding signal (z-score),[19],-0.076
same,glycan array binding signal (z-score),[20],0.057
same,glycan array binding signal (z-score),[21],-0.181
same,glycan array binding signal (z-score),[22],-0.788
